In all, about 370,000 compounds went through this assay and about 150 (0.041%) were called active. Inconclusive means that the source gave no clear call. Such entries were picked first, then a sample of the others. Calls come from the whole dose curve; as a rule, active = well fitted inhibition curve with a large enough effect; inconclusive = small, poorly fitted or top-dose-only effect; inactive = flat fitted curve, though single readings scatter. No potency is given beside an inconclusive call; the fits are too rough.
target: Beta-lactamase (Escherichia coli (strain K12)) (UniProt P00811); test: qHTS Inhibitors of AmpC Beta-Lactamase (assay with detergent); settings: AmpC hydrolysis of nitrocefin, absorbance 480 nm, 0.01% Triton; activity change, negative = inhibition: at 114 µM (top of the series); note: nearly all actives have a fitted effect of over 25% in size;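 for activity change, negative = inhibition: 0% = no-compound wells and -100% = no-enzyme wells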
Sequence of UniProt P00811 (P00811 whole entry, looked up): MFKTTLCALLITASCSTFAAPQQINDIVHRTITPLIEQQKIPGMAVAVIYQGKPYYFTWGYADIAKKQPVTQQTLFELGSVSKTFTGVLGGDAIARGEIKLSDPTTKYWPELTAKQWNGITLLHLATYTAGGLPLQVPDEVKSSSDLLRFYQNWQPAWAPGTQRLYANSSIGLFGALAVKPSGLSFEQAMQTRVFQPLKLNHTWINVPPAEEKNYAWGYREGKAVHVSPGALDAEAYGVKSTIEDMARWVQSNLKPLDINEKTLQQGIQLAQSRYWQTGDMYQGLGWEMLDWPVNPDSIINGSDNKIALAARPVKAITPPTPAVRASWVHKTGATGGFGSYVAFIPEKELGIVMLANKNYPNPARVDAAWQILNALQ
Outline: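 AmpC (5.3 nM in the dispensed reagent) in 20 mM phosphate pH 7.0 with 0.01% (detergent screen) or 0.0001% Triton X-100 was preincubated with compounds for 15 min at room temperature. Nitrocefin was then added from an 800 uM solution, and hydrolysis was followed at 480 nm.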
Potency is the fitted concentration of half-maximal effect; tags give direction and shape of the fitted curve.

Compound | Potency | activity change, negative = inhibition
O=C(CSc1nnc(COc2cccc3cccnc23)o1)c1ccc(F)cc1 | inconclusive [inhibitor, partial curve] | –
COc1ccccc1-n1c(/C=C/c2ccccn2)nc2ccccc2c1=O | – | inactive: -6.72%
CCOc1ccc(CSC(CC(=O)O)C(=O)O)cc1 (centres undefined) | inconclusive [inhibitor, full curve, poor fit] | –
CC1CCN(CC(=O)N2CCc3ccccc32)CC1 | – | inactive: 0.1%
CC(=O)OCC(OC(C)=O)C(OC(C)=O)C(OC(C)=O)C(=O)Nc1ccccc1C (centres undefined) | inconclusive [inhibitor, full curve, poor fit] | –
CC(C)c1ccc(CN(C(=O)C2COc3ccccc3O2)C2CCS(=O)(=O)C2)cc1 (centres undefined) | – | inactive: 0.551%
Cc1ccc(Sc2ccc(N3CCCC(C(=O)Nc4ccc(F)cc4F)C3)nn2)cc1 (centres undefined) | – | inactive: 10.1%
CC1CN(C(=O)c2cc3c(=O)n4ccccc4nc3n2C)CC(C)O1 (centres undefined) | – | inactive: 2.07%
Cn1c(O)c(C=NCCOc2ccc(Cl)cc2)c(=O)n(C)c1=O | inconclusive [inhibitor, full curve, poor fit] | –
COc1ccccc1CNC(=O)CCCn1c(=O)c2ccccc2n(Cc2ccc(C)cc2)c1=O | – | inactive: -0.767%
CCN1CCN(S(=O)(=O)c2ccc(Cl)c(C(=O)Nc3nnc(C)s3)c2)CC1 | inconclusive [inhibitor, partial curve, poor fit] | –
CCOc1ccc(C(=O)C(CN2CCOCC2)c2ccccc2)cc1 (centres undefined) | inconclusive [inhibitor, partial curve, poor fit] | –
CC(C)Cn1c(SC(C)C(=O)NCC2CCCO2)nc2ccc(Cl)cc2c1=O (centres undefined) | inconclusive [inhibitor, full curve, poor fit] | –
CN(c1ncc(C(F)(F)F)cc1Cl)n1cc(C(N)=O)c2ccccc2c1=O | inconclusive [inhibitor, partial curve] | –
COc1ccc(/C=N/Nc2nc(N3CCCC3)nc(N3CCCC3)n2)cc1 | – | inactive: -12.4%
CCc1ccc(C(=O)OCC(=O)c2c(N)n(CC(C)C)c(=O)n(C)c2=O)cc1 | – | inactive: 3.79%
CC1(C)CC(=O)C2=C(C1)N(CC1CCCO1)C(=O)C2(O)C(F)(F)F (centres undefined) | inconclusive [inhibitor, partial curve, poor fit] | –
Cc1ccc(-n2c(C)cc(C(=S)N3CCOCC3)c2C)cc1C | inconclusive [inhibitor, partial curve, poor fit] | –
CCOc1ccc(NC(=S)N(CCc2c(C)[nH]c3ccc(C)cc23)Cc2cccnc2)cc1 | inconclusive [inhibitor, partial curve] | –
COc1ccccc1Nc1cc(N2CCOCC2)c2nonc2c1[N+](=O)[O-] | inconclusive [inhibitor, full curve, poor fit] | –
CCOc1ccc(-n2c(SCC(=O)NCc3ccco3)nnc2-c2c[nH]c3ccccc23)cc1 | inconclusive [inhibitor, partial curve, poor fit] | –
Clc1cccc(OCCCn2ccnc2)c1 | inconclusive [inhibitor, full curve, poor fit] | –
COc1cc2c(cc1OC)CN(C(=O)CCCN1C(=O)c3ccccc3C1=O)CC2 | inconclusive [inhibitor, full curve] | –

Compound | Potency | activity change, negative = inhibition
Cc1ccc(S(=O)(=O)Nc2ccc(-c3nc4ccc(C)cc4s3)cc2)cc1 | inconclusive [inhibitor, single point] | –
CC(C)COc1ccc(-c2cc(C(=O)NN)[nH]n2)cc1 | inconclusive [inhibitor, single point] | –
O=C(CN(CCc1ccccc1)S(=O)(=O)c1ccc(Cl)cc1)N/N=C/c1ccc2c(c1)OCO2 | inconclusive [inhibitor, full curve] | –
O=C(c1ccncc1)N(Cc1ccccc1)Cc1nc2ccccc2c(=O)[nH]1 | inconclusive [inhibitor, full curve] | –
CC(=O)Nc1ccc(/C=C(\C#N)C(N)=O)cc1 | – | inactive: 7.39%
Oc1ccc(/C=N/Nc2cc(N3CCOCC3)nc(N3CCOCC3)n2)cc1O | – | inactive: -6.34%
CC(=O)NCC(=O)OC(C)C(=O)Nc1ccc(C(C)=O)cc1 (centres undefined) | inconclusive [inhibitor, full curve] | –
COC(=O)c1ccccc1S(=O)(=O)NNC(=O)C1COc2ccccc2O1 (centres undefined) | inconclusive [inhibitor, full curve, poor fit] | –
CC1CC(=O)C=C(O)C1C(=O)OC(C)(C)C (centres undefined) | inconclusive [inhibitor, partial curve, poor fit] | –
O=C(NC1CCCCCC1)C1CCC(=O)N(Cc2ccccc2F)C1 (centres undefined) | – | inactive: -8.92%
COc1ccc(CCC(=O)OCC(=O)Nc2ccc(C)c(S(=O)(=O)N(C)C)c2)cc1 | inconclusive [inhibitor, full curve, poor fit] | –
Clc1ccccc1OCc1nc(-c2ccc(Br)o2)no1 | – | inactive: -13.8%
NC(=O)C1=C[C@H](c2ccc3c(c2)OCO3)C[C@H](OCc2ccc(CO)cc2)O1 | – | inactive: 0.719%
O=c1c2[nH]c3ccccc3c2ncn1CCN1CCCCC1 | inconclusive [inhibitor, full curve, poor fit] | –
COc1cccc(C(=O)NNC(=O)C(=O)Nc2cccc(Cl)c2C)c1 | inconclusive [inhibitor, partial curve, poor fit] | –
Oc1[nH]c2ccc(Br)cc2c1N=Nc1ccc(F)cc1 | – | inactive: 4.11%
O=C(NCc1ccco1)c1cccn2c(=O)c3cc4ccccc4cc3nc12 | inconclusive [inhibitor, partial curve, poor fit] | –
Cc1cc(Cl)cc(Cl)c1OCCOc1cccc2cccnc12 | inconclusive [inhibitor, single point] | –
Cc1ccc(NC(=S)N2CCCN(Cc3ccc(F)cc3)C2)c(C)c1 | inconclusive [inhibitor, full curve, poor fit] | –
O=C(Nc1cccc(-n2cnnn2)c1)c1cccs1 | inconclusive [inhibitor, full curve, poor fit] | –
Cc1sc2c(c1C)CN(Cc1ccncc1)CN2C(=O)c1ccco1 | – | inactive: 3.82%
Cn1cc(CCNC(=O)C2CCC(=O)N(CCc3ccc(Cl)cc3)C2)cn1 (centres undefined) | inconclusive [inhibitor, full curve, poor fit] | –
COc1ccc(Cn2c(=O)[nH]c3cc(C(=O)N4CCN(c5ccc(C(C)=O)cc5)CC4)ccc3c2=O)cc1 | inconclusive [inhibitor, full curve] | –

Compound | Potency | activity change, negative = inhibition
CC(C)(C)NC(=O)CN(Cc1cccs1)C(=O)CN1C(=O)C(=O)c2ccccc21 | inconclusive [inhibitor, single point] | –
CCCN(c1ccc(C)cc1)c1nc(=O)c2cccnc2s1 | inconclusive [inhibitor, full curve, poor fit] | –
COCCNc1oc(COc2cccc(C)c2)nc1C#N | inconclusive [inhibitor, full curve] | –
CCCCNC(=O)Cn1nc(C)c(S(=O)(=O)N2CCOCC2)c1C | inconclusive [inhibitor, full curve, poor fit] | –
O=C(N/N=C/c1ccc(O)cc1)Nc1cccc2nsnc12 | – | inactive: 7.04%
O=C(NCc1cccs1)C1CC1 | inconclusive [inhibitor, full curve, poor fit] | –
COc1ccccc1CNC(=O)CCNC(=O)c1ccco1 | inconclusive [inhibitor, full curve, poor fit] | –
CCC(C)(C)n1nnnc1C(c1ccccc1F)N1CCN(C(=O)c2ccco2)CC1 (centres undefined) | inconclusive [inhibitor, full curve, poor fit] | –
O=C(COc1ccccc1)Nc1nc(-c2ccc(S(=O)(=O)N3CCOCC3)cc2)cs1 | – | inactive: -7.06%
COc1ccccc1N1CCN(CC(=O)Nc2ccc(Cl)c(C(F)(F)F)c2)CC1 | inconclusive [inhibitor, full curve] | –
CC(C)(C)NC(=O)NC(=O)COC(=O)C1=COCCO1 | inconclusive [inhibitor, single point] | –
NS(=O)(=O)c1cc2c(cc1Cl)NC=NS2(=O)=O | inconclusive [inhibitor, single point] | –
Oc1cccc(/C=N/NC(=S)NCCN2CCOCC2)c1O | inconclusive [inhibitor, single point] | –
CSc1cccc(CN2CCN(Cc3ccc(F)c(F)c3)C(CCO)C2)c1 (centres undefined) | – | inactive: 1.22%
CC(C)(C)c1ccc2c(c1)OC(C(=O)N/N=C\c1ccccn1)CO2 (centres undefined) | inconclusive [inhibitor, single point] | –
CCCCn1nc(NC(=O)CCC)c2cc3cc(OC)ccc3nc21 | – | inactive: -8.23%
Cn1c(=O)c2[nH]c(-c3ccccc3)nc2n(C)c1=O | – | inactive: -9.77%
O=C1CC(NCc2ccccc2F)C(=O)N1c1ccccc1 (centres undefined) | inconclusive [inhibitor, full curve, poor fit] | –
CC(C(N)=O)N1c2cccc3cccc(c23)S1(=O)=O (centres undefined) | – | inactive: 0.113%
O=C(NCCc1ccc(Cl)cc1)c1cc(=O)[nH]c2ccccc12 | – | inactive: -4.86%
Cc1ccc(OCC(O)Cn2c(N3CCOCC3)nc3c2c(=O)[nH]c(=O)n3C)cc1 (centres undefined) | inconclusive [inhibitor, full curve, poor fit] | –
COc1ccc2c(C(=O)CCl)c[nH]c2c1 | inconclusive [inhibitor, partial curve] | –
O=C(N/N=C/c1cccnc1)/C(=C\c1cccs1)NC(=O)c1ccccc1 | inconclusive [inhibitor, full curve, poor fit] | –

From PubChem BioAssay AID485294 (National Center for Advancing Translational Sciences (NCATS), 2010)
